Over roughly 110,000 compounds, “z-score” has its median near -0.1; the highest 2% begin near 2. The list shows a part of the results. Calls of active or inactive are those of the source.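 The calls were made as follows: active = z-score in the third read window above 3 or below -3; inactive = the rest.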
molecular target: Metabotropic glutamate receptor 8 (Rattus norvegicus) (UniProt P70579); assay: mGluR8 Gi/Go-coupled signaling modulation – cell-based, rat, thallium flux, HTS, primary screen (AID 488969); conditions: HEK293 rat mGluR8, GIRK (G protein-gated inwardly rectifying potassium channel) thallium flux, FluoZin2; at 10 µM; stronger effect = higher value; submaximal glutamate (EC20) added with thallium
Sequence of UniProt P70579 (P70579 whole entry, looked up): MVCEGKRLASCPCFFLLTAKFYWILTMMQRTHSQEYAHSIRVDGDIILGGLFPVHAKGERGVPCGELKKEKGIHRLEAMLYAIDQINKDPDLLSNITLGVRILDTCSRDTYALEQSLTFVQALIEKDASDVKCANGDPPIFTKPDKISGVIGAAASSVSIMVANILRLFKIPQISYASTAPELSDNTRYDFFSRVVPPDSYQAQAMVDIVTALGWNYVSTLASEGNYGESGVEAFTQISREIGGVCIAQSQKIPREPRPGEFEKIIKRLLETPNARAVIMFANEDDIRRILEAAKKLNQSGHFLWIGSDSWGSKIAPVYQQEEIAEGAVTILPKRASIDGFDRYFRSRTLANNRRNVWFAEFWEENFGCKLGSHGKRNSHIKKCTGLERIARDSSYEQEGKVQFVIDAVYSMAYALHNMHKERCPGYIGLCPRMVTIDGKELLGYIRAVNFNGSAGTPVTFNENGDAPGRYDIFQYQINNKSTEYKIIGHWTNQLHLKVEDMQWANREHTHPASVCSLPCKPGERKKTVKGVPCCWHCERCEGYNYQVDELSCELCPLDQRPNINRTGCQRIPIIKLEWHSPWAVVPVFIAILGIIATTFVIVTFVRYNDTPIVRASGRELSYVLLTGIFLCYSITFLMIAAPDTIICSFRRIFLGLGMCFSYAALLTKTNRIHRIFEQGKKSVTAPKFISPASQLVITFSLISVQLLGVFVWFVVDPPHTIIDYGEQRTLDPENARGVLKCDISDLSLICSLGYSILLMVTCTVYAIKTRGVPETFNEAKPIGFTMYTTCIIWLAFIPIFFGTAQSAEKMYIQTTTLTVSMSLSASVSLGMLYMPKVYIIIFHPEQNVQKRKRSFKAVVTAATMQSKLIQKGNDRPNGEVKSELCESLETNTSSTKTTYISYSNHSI

Structure (SMILES)	z-score
O=C(Nc1ccsc1C(=O)NC1CC1)c1ccccc1	-0.678
CC1(C)SCC(C(=O)O)N1C=O (stereo not given)	-0.0525
O=C(Nc1ccccc1C(=O)N1CCOCC1)c1ccncc1	0.643
O=C(Nc1cccc(C(=O)N2CCOCC2)c1)NC1CCCCC1	0.761
O=S(=O)(c1cccc(C(F)(F)F)c1)N1CCN(C(=S)NCc2ccco2)CC1	-0.269
CCC(C)(C)c1ccc(Oc2ccc(NC(=O)COC(=O)C3=COCCO3)cc2)cc1	-0.0127
CCCOC(=O)CN1C(=O)c2ccccc2C1=O	-0.291
CCOc1cccc(C2C(C(=O)c3ccc(C)o3)=C(O)C(=O)N2Cc2ccncc2)c1 (stereo not given)	-1.1
COc1ccc(/C=N/Nc2nc3ccccc3c(=O)[nH]2)cc1	-0.215
CCOC(=O)CN1C(=O)C(O)(CC(=O)c2ccco2)c2ccccc21 (stereo not given)	0.408
O=C(NC1CCCCC1)C(c1ccc(F)cc1)N(CCc1ccccc1)C(=O)CN1C(=O)c2ccccc2S1(=O)=O (stereo not given)	-0.267
CCCCN(C(=O)CSc1nnc(-c2ccccc2OC)n1C)c1c(N)n(Cc2ccccc2)c(=O)[nH]c1=O	-0.25
CCCCn1c(Cc2ccccc2)nnc1SCC(=O)N1CCOCC1	-0.257
O=C(NCc1ccco1)c1cc2ccccc2o1	-0.0182
COC(=O)c1ccc(COC(=O)c2ccc(CS(=O)(=O)c3ccc(C)cc3)cc2)cc1	-0.331
COc1ccc(CNC(=O)CCSc2nc(-c3ccc4c(c3)OCO4)cc(C(F)(F)F)n2)cc1	-0.113
Cc1nonc1OCCNC(=O)C12CC3CC(CC(C3)C1)C2	0.229
Cc1ccc(N2C(=O)[C@@H]3Cc4ccccc4CN3C2=O)cc1	0.799
CC(C)C(NC(=O)c1ccc(C(C)(C)C)cc1)C(=O)O (stereo not given)	-0.0228
Cc1ccc(C(=O)NC(=S)Nc2ccc3[nH]c(=O)[nH]c3c2)cc1C	0.0514
CN(C)c1ccc(CNc2ccc3c(c2)ncn3C)cc1	0.00566
CCCCOc1ccc(C(=O)N/C(=C\c2ccc(OC)cc2)C(=O)OCc2ccco2)cc1	0.333
CCCCC(=O)Nc1cc(N(C)C)nc2ccccc12	-0.432
O=C(c1ccc(F)cc1)C(CCCCCC(CN1CCOCC1)C(=O)c1ccc(F)cc1)CN1CCOCC1 (stereo not given)	1.92
Cc1ccc(SCC(=O)NC(=O)Nc2ccc3c(c2)OCCO3)cc1C	-0.0622
O=S(=O)(NC1CCCCC1NS(=O)(=O)c1ccc(F)cc1)c1ccc(F)cc1 (stereo not given)	-0.667
CCN(CC)S(=O)(=O)c1cc(C(=O)Nc2ccccc2[N+](=O)[O-])ccc1Cl	-0.134
Cc1ccc(N=Cc2ccc[nH]2)c(O)c1	-0.0743

Structure (SMILES)	z-score
Cc1nc(=O)c(-c2ccccc2)c(C)n1CCCCCC(=O)O	-0.133
CCOC(=O)CSc1nnc(CSc2nc(N)c3c(C)c(C)sc3n2)n1-c1ccccc1	-0.194
Oc1ccc(Cl)cc1CNCC1CCCO1 (stereo not given)	-1.24
COc1c2ccc(C(=O)NCCCCc3ccccc3)cc2nn1C	0.0978
CC(CCc1ccccc1)NC(=O)Cc1ccc([N+](=O)[O-])cc1 (stereo not given)	-1.51
CCOC(=O)c1sc(NC(=O)CN2C(=O)NC3(CC(C)CC(C)(C)C3)C2=O)c(C(=O)OCC)c1C (stereo not given)	-0.126
COc1ccc(N2CCN(/C(=N\S(=O)(=O)c3ccc(C)cc3)Nc3nc(C)cc(C)n3)CC2)cc1	-0.421
O=C(Cn1c(C(F)(F)F)nc2ccccc21)OCC(=O)c1c[nH]c2ccccc12	-0.594
Cn1c(=O)c(C(=O)c2ccccc2)nc2ccccc21	0.00614
Cn1c(SCc2nc(-c3ccccc3)no2)nnc1-c1cccs1	-0.0325
COc1ccc(N(CC(=O)NCc2ccc3c(c2)OCO3)S(C)(=O)=O)cc1OC	-0.87
O=C(NCCc1ccccc1)c1cccnc1N1CCCCCC1	-0.918
CCCCNc1cc(C)nc(N2CCOCC2)n1	-0.087
CCc1cc2c(=O)n(CC)c(SC(C)C(=O)Nc3c(C)n(C)n(-c4ccccc4)c3=O)nc2s1 (stereo not given)	active: -3.33
CCCC(=O)Nc1nc2ccc(NC(=O)c3ccc(Br)o3)cc2s1	-1.05
FC(F)(F)c1cc(-c2ccco2)nc(NCc2cccs2)n1	0.0189
COc1cccc(CSc2nc3ccccc3cc2C=O)c1	-1.37
Clc1ccc2nc(-c3ccncc3)cc(-c3ccccc3)c2c1	0.109
CCOCCCNCc1ccc(OC)cc1	-0.409
COCCn1c(=S)[nH]c2cc(C(=O)NCCc3ccc(OC)c(OC)c3)ccc2c1=O	-0.0271
O=C(Cc1ccccc1)Nc1cc(Cl)ccc1Sc1ccccc1	0.037
CCOC(=O)c1sc(C)c2c1NC(c1ccc(Cl)cc1)NC2=O (stereo not given)	0.0644
CC1Cc2ccccc2N1c1ncnc2c1nnn2Cc1ccccc1Cl (stereo not given)	-0.251
Cc1cc(C)c2[nH]c(=O)c(C(c3nnnn3C(C)(C)C)N(Cc3ccco3)CC3CCCO3)cc2c1 (stereo not given)	-0.324
CCOC(=O)c1ccc(NC(=S)NC2CCCC2)cc1	2.61
Cc1ccc(NC(=O)c2ccccc2)s1	-0.277
CCOC(=O)N1CCN(S(=O)(=O)c2cc(OCC)ccc2OCC)CC1	-0.0833
